According to a collection of fitness landscapes (doi:10.1016/j.celrep.2020.107928):
Whole data set: some 81,000 sequences, median “one-hybrid fitness for binding parS DNA” near -0.17, cut for the highest 2% near 0.51. This is one part of the list.

B1: Caulobacter ParB omega fusion; a variant is named by its letters at X, in order, B8GW30 (parent)
chain: MESVVVGEPGMSEGRRGLGRGLSALLGEVDAAPAQAPGEQLGGSREAPIEILQRNPDQPRRTFREEDLEDLSNSIREKGVLQPILVRPSPDTAGEYQIVAGERAWRAAQRAGLKTVPIMVRELDDLAVLEIGIIENVQRADLNVLEEALSYKVLMEKFERTQENIAQTIGKSXSHVANXMRLLXLPDEVQSYLVSGELTAXHARAIAAAADPVALAKQIIEGGLSVRETEALARKAPNLSAGKSKGGRPPRVKDTDTQALESDLSSVLGLDVSIDHRGSTGTLTITYATLEQLDDLCNRLTRGI

Variants of: B1
Test: one-hybrid fitness for binding parS DNA (scaled: cognate 1, non-cognate 0); higher = stronger binding
Conditions: with parS DNA site
In short: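 The reporter was HIS3, with the binding site 19 bp from the promoter, in E. coli USO used for bacterial one-hybrid selection of Caulobacter ParB libraries with four specificity codons randomised. Growth was on M9 lacking histidine, with 0.1 mM IPTG and 5 mM 3-AT, for 48 hours at 37°C. Illumina sequencing covered plasmids before and after selection; three replicate libraries were pooled and variants with under 10 reads dropped. A fitness score is the log change in variant-to-wild-type read ratio, rescaled to the cognate and non-cognate references.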

Row | Variant | one-hybrid fitness for binding parS DNA
1 | QANV | ≤ 0.2
2 | AVCE | ≤ 0.2
3 | HACL | ≤ 0.2
4 | ALQM | ≤ 0.2
5 | CGSW | ≤ 0.2
6 | HSQK | ≤ 0.2
7 | WMAR | ≤ 0.2
8 | EVQG | ≤ 0.2
9 | QWTA | ≤ 0.2
10 | WQST | ≤ 0.2
11 | LCNS | ≤ 0.2
12 | QMQN | ≤ 0.2
13 | SMKD | ≤ 0.2
14 | DENK | ≤ 0.2
15 | SFLH | ≤ 0.2
16 | RWHF | ≤ 0.2
17 | RYTP | ≤ 0.2
18 | HRKL | ≤ 0.2
19 | CLTC | ≤ 0.2
20 | VYIT | ≤ 0.2
21 | CLRY | ≤ 0.2
22 | QRAI | ≤ 0.2
23 | GPMR | ≤ 0.2
24 | SADY | ≤ 0.2
25 | PQMC | ≤ 0.2
26 | PIMY | ≤ 0.2

Row | Variant | one-hybrid fitness for binding parS DNA
27 | LWWF | ≤ 0.2
28 | NNID | ≤ 0.2
29 | IWLR | ≤ 0.2
30 | MLIS | ≤ 0.2
31 | QHRM | ≤ 0.2
32 | STWV | ≤ 0.2
33 | KGCA | ≤ 0.2
34 | LAVV | ≤ 0.2
35 | RISR | ≤ 0.2
36 | HVII | 0.244
37 | MFRC | ≤ 0.2
38 | QWEC | ≤ 0.2
39 | EPRT | ≤ 0.2
40 | FECG | ≤ 0.2
41 | TANG | ≤ 0.2
42 | LCTC | ≤ 0.2
43 | GWTR | ≤ 0.2
44 | RWPM | ≤ 0.2
45 | QGAW | ≤ 0.2
46 | HRGN | ≤ 0.2
47 | PNIR | ≤ 0.2
48 | VPHS | ≤ 0.2
49 | MPRM | ≤ 0.2
50 | MPTT | ≤ 0.2
51 | KSGL | ≤ 0.2
52 | PPAS | ≤ 0.2

Row | Variant | one-hybrid fitness for binding parS DNA
53 | NFCC | ≤ 0.2
54 | YLCE | ≤ 0.2
55 | PSCG | ≤ 0.2
56 | LITR | ≤ 0.2
57 | RKSA | 0.717
58 | CHVG | ≤ 0.2
59 | LDLK | ≤ 0.2
60 | MNSL | ≤ 0.2
61 | PPML | ≤ 0.2
62 | EVLS | ≤ 0.2
63 | NCNL | ≤ 0.2
64 | YFDP | ≤ 0.2
65 | WSMN | ≤ 0.2
66 | VTME | ≤ 0.2
67 | DMKR | ≤ 0.2
68 | SKMS | ≤ 0.2
69 | EAPH | ≤ 0.2
70 | CPLY | ≤ 0.2
71 | SWVN | ≤ 0.2
72 | IFAW | ≤ 0.2
73 | YCMS | ≤ 0.2
74 | KLCS | ≤ 0.2
75 | WTIS | ≤ 0.2
76 | PADR | ≤ 0.2
77 | RYRG | 0.92
78 | MKCG | ≤ 0.2

Row | Variant | one-hybrid fitness for binding parS DNA
79 | KIFG | ≤ 0.2
80 | NIHV | ≤ 0.2
81 | NKDV | ≤ 0.2
82 | GNTV | ≤ 0.2
83 | WLLR | ≤ 0.2
84 | VTSQ | ≤ 0.2
85 | ITTA | ≤ 0.2
86 | TELD | ≤ 0.2
87 | QNSN | ≤ 0.2
88 | YPCS | ≤ 0.2
89 | SYQF | ≤ 0.2
90 | TQCG | ≤ 0.2
91 | WCRS | ≤ 0.2
92 | AAAE | ≤ 0.2
93 | IARV | ≤ 0.2
94 | SSNL | ≤ 0.2
95 | QTQH | ≤ 0.2
96 | DDGG | ≤ 0.2
97 | RPKN | ≤ 0.2
98 | MFKS | ≤ 0.2
99 | HRFQ | ≤ 0.2
100 | AGKN | ≤ 0.2
101 | ILHY | ≤ 0.2
102 | TGAS | ≤ 0.2
103 | FIFL | ≤ 0.2
104 | QDCL | ≤ 0.2

Row | Variant | one-hybrid fitness for binding parS DNA
105 | RVWP | ≤ 0.2
106 | PGAT | ≤ 0.2
107 | HLDR | ≤ 0.2
108 | DQRY | ≤ 0.2
109 | IKSL | ≤ 0.2
110 | HGLT | ≤ 0.2
111 | DTIG | ≤ 0.2
112 | HTSE | ≤ 0.2
113 | AWKG | ≤ 0.2
114 | GGMS | ≤ 0.2
115 | AQGA | ≤ 0.2
116 | AQGR | ≤ 0.2
117 | QFNE | ≤ 0.2
118 | VICR | ≤ 0.2
119 | DNHG | ≤ 0.2
120 | TIDY | ≤ 0.2
121 | IWTT | ≤ 0.2
122 | REMC | ≤ 0.2
123 | WPPN | ≤ 0.2
124 | FPNS | ≤ 0.2
125 | FGGN | ≤ 0.2
126 | GTQS | ≤ 0.2
127 | YHAR | ≤ 0.2
128 | HVYG | ≤ 0.2
129 | LVAT | ≤ 0.2
130 | KCST | ≤ 0.2

Row | Variant | one-hybrid fitness for binding parS DNA
131 | MCSE | ≤ 0.2
132 | YRDR | ≤ 0.2
133 | LMTK | ≤ 0.2
134 | TLKT | ≤ 0.2
135 | ILHF | ≤ 0.2
136 | PDPP | ≤ 0.2
137 | METE | ≤ 0.2
138 | KKLR | ≤ 0.2
139 | MTDT | ≤ 0.2
140 | MITD | ≤ 0.2
141 | PTYY | ≤ 0.2
142 | ESHY | ≤ 0.2
143 | TARY | ≤ 0.2
144 | PHST | ≤ 0.2
145 | QFRY | ≤ 0.2
146 | KWKI | ≤ 0.2
147 | VQNC | ≤ 0.2
148 | HTIG | ≤ 0.2
149 | NSTT | ≤ 0.2
150 | DPWI | ≤ 0.2
151 | GYLS | ≤ 0.2
152 | MTHC | ≤ 0.2
153 | LLAA | ≤ 0.2
